Laboratory results published in the supplement of paper PMC7826260.
This is one part of the list. Each Rep nickase domain was tested in vitro on the same pool of single strands at 3 µM enzyme and 37 °C for 1 h; the strands have 90 letters, of which the middle is given. The score is log2 (uncut reads / reads without enzyme); more negative means more cut, near 0 not cut, and no call is made. The scaling is to total reads, so uncut sequences can rise above 0 when many others are cut.

How the values were obtained:
Assay in all cases: uncleaved DNA left, log2 of reads against the no-enzyme library (log2 ratio); higher = less cleavage (more negative = more Rep cleavage of the k-mer); sequences stand for … in CTCGTCCG…ACCGGAGA
[1] = test system: T1, Rep nickase domain of Muscovy duck circovirus
T1 sequence (residues 1-111 of Rep, tag left off): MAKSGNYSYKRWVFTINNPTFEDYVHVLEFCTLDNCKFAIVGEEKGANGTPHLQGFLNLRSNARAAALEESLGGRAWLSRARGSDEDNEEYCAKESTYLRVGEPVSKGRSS
Method: (§1)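 A pool of 90-nt single-stranded DNAs with seven random bases just before the constant AC of the nick site (name = the seven bases) was cut by 3 µM recombinant His6-SUMO-tagged Rep nickase domain (300 nM DNA, 50 mM HEPES pH 8.0, 50 mM NaCl, 1 mM MnCl2, 1 h, 37 °C, three replicates). Uncut DNA was amplified and sequenced.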

[2] = test system: T2, Rep nickase domain of banana bunchy top virus
T2 sequence (residues 1-94 of Rep, tag left off): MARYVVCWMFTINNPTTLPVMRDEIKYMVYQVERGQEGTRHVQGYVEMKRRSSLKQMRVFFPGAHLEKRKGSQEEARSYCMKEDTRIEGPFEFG
Method: as §1

[3] = test system: T3, Rep nickase domain of cabbage leaf curl virus
T3 sequence (residues 1-116 of Rep, tag left off): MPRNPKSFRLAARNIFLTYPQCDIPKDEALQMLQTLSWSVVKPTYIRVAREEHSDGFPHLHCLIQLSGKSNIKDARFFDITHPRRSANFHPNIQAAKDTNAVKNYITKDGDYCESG
Method: as §1

[4] = test system: T4, Rep nickase domain of chickpea chlorotic dwarf virus
T4 sequence (residues 1-124 of Rep, tag left off): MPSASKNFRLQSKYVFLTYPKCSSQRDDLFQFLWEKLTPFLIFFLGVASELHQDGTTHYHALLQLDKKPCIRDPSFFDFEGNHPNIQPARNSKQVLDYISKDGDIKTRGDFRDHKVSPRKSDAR
Method: as §1

[5] = test system: T5, Rep nickase domain of faba bean necrotic yellows virus
T5 sequence (residues 1-98 of Rep, tag left off): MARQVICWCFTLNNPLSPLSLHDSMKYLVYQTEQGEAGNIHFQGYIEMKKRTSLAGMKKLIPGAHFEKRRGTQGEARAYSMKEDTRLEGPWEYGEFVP
Method: as §1

[6] = test system: T6, Rep nickase domain of maize striate mosaic virus
T6 sequence (residues 1-117 of Rep, tag left off): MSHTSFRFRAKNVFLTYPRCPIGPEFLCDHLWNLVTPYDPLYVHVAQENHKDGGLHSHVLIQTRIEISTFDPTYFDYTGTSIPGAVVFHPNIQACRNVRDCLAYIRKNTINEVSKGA
Method: as §1

[7] = test system: T7, Rep nickase domain of porcine circovirus 2
T7 sequence (residues 2-116 of Rep, tag left off): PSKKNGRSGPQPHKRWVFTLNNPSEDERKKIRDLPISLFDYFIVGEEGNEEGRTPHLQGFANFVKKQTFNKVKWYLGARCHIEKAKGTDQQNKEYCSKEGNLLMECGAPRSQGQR
Method: as §1

[8] = test system: T8, Rep nickase domain of tomato golden mosaic virus
T8 sequence (residues 1-124 of Rep, tag left off): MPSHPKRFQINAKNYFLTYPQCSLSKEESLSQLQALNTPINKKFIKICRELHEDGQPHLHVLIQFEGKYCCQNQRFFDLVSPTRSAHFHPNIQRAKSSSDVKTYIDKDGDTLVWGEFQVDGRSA
Method: as §1

[9] = test system: T9, Rep nickase domain of tomato yellow leaf curl virus
T9 sequence (residues 1-136 of Rep, tag left off): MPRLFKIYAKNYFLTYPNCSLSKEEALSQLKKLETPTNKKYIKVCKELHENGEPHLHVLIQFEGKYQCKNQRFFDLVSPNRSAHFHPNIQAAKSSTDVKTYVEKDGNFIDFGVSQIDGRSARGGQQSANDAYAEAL
Method: as §1

[10] = test system: T10, Rep nickase domain of wheat dwarf virus
T10 sequence (residues 1-137 of Rep, tag left off): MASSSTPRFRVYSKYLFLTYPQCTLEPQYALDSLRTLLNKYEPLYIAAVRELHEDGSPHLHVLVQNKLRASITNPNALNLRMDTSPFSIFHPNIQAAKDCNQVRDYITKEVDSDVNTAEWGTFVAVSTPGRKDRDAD
Method: as §1

Row | Sequence | uncleaved DNA left (log2) [1] | uncleaved DNA left (log2) [2] | uncleaved DNA left (log2) [3] | uncleaved DNA left (log2) [4] | uncleaved DNA left (log2) [5] | uncleaved DNA left (log2) [6] | uncleaved DNA left (log2) [7] | uncleaved DNA left (log2) [8] | uncleaved DNA left (log2) [9] | uncleaved DNA left (log2) [10]
1 | TCTGATA | -0.195 | -0.0614 | -0.00902 | -0.675 | 0.05 | 0.0558 | -0.135 | -0.00718 | -0.239 | -0.00208
2 | ACGCTAA | 0.0389 | 0.0673 | -0.0808 | -0.316 | 0.0231 | -0.464 | 0.116 | 0.0986 | -0.0536 | -0.0617
3 | GCCGATA | 0.169 | 0.0437 | 0.0681 | 0.111 | -0.0156 | 0.341 | 0.167 | 0.128 | 0.0706 | 0.00163
4 | AATCCAC | -0.0876 | -0.0963 | -0.0369 | -0.423 | 0.0346 | -0.718 | -0.0716 | -0.0166 | -0.105 | 0.00974
5 | ATTAGTG | 0.0893 | 0.00483 | -0.6 | -0.613 | 0.0491 | -1.14 | 0.313 | 0.138 | 0.118 | 0.133
6 | GATACAG | -0.00322 | 0.0119 | -0.158 | -0.038 | 0.0548 | -0.413 | 0.209 | -0.104 | 0.0772 | 0.0176
7 | ATGTAAC | 0.0115 | -0.106 | -0.52 | -1.43 | -0.0372 | -0.746 | -0.075 | 0.0406 | -0.0374 | -0.0974
8 | ACGGCTC | -0.0836 | -0.0461 | -0.294 | -0.0809 | -0.183 | -0.331 | -0.0139 | -0.114 | -0.139 | -0.339
9 | GTGTCCC | -0.0758 | 0.026 | 0.232 | 0.759 | -0.0543 | 1.82 | -0.0226 | 0.151 | -0.0117 | -0.0171
10 | CCGGTCC | -0.00169 | 0.00879 | 0.286 | 0.311 | -0.0199 | 0.992 | 0.0305 | -0.0308 | 0.0497 | -0.0253
11 | GAGGGTG | 0.109 | -0.0891 | -0.203 | -0.0268 | 0.0233 | 0.102 | 0.165 | 0.128 | 0.0724 | -0.0206
12 | GTAAAGC | 0.0221 | 0.022 | 0.11 | 0.464 | 0.000734 | -0.0553 | 0.0746 | 0.0345 | 0.0998 | -0.0121
13 | GCGAACT | -0.0576 | 0.00979 | 0.0821 | 0.369 | -0.0475 | 1.19 | -0.121 | -0.156 | -0.0565 | 0.127
14 | CAGAACA | 0.0076 | 0.0624 | -0.0774 | -2.03 | 0.0825 | -0.451 | -1.2 | 0.15 | 0.0199 | 0.0812
15 | GCTGAAG | -0.0403 | -0.0467 | -0.632 | -0.491 | 0.0638 | -1.04 | 0.0869 | 0.00874 | -0.0193 | -0.107
